# Assay results from US8455252B2, “Materials and methods for sensitizing multidrug resistant cells” (Indiana University Research and Technology Corp., priority 2008, dated 2013).
# How the values were obtained:
# ABCG2 [1] = biological target: T1, ABCG2 (Homo sapiens, UniProt Q9UNQ0); assay: Sensitization of mitoxantrone resistance in HEK293/ABCG2 cells, SRB assay; details: for SI (sensitization index): HEK293/ABCG2, mitoxantrone
# T1 sequence (Q9UNQ0 1-655): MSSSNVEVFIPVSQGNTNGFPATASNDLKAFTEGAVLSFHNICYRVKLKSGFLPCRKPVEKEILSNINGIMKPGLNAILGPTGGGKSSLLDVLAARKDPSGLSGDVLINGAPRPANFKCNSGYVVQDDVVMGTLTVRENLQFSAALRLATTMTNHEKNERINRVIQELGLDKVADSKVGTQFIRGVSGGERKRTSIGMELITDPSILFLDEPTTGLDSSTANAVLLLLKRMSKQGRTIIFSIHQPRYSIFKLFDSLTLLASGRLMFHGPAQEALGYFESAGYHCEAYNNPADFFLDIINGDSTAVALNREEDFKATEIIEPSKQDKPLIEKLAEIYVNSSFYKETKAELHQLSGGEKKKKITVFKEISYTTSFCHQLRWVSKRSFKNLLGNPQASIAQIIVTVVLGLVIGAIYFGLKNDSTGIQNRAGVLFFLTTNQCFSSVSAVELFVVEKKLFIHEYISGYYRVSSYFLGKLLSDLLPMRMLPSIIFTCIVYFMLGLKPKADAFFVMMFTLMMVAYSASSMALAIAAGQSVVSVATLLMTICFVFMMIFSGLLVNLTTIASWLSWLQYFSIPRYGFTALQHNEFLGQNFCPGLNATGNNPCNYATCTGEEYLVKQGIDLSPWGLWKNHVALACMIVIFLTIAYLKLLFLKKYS
# Description: (§1) The potency and sensitization index of the inhibitors were calculated as follows: Potency index=IC50(inhibitor)/IC50(inhibitor+drug) Sensitization index=IC50(drug+inhibitor)/IC50(drug)
# ABCG2 [2] = biological target: T2, ABCG2 (Homo sapiens, UniProt Q9UNQ0, R482T); details: MCF7/AdVp3000, 200 nM inhibitor
# T2 sequence (Q9UNQ0 1-655 R482T): T1 sequence (Q9UNQ0 1-655) with R482T
# Description: as §1
# Data was collected using the SRB assay. […] The data shown are mean±SD of three independent experiments.
# ABCG2 [3] = biological target: T1, ABCG2; assay: Western blot of ABCG2 level and degradation in HEK293/ABCG2 cells
# Description: Western blot, immunoprecipitation, and flow cytometry.
# (§2) Then, the cells were washed 3 times and incubated with Phycoerythrin-Streptavidin for 30 min followed by washing for 3 times and analysis by flow cytometry.
# Samples were taken at times before exposure of cells (control) and 24, 48 and 72 hours after exposure in the top 3 panels, and before, 2, 24 and 48 hours after exposure (bottom panel).
# ABCG2 [4] = biological target: T1, ABCG2; assay: 5D3 antibody staining (ABCG2 conformation), flow cytometry; details: HEK293/ABCG2, 10 μM, 30 min
# Description: as §2
# HEK293/ABCG2 cells = assay: Cytotoxicity of inhibitor alone, SRB assay
# ABCG2 [5] = biological target: T1, ABCG2; assay: Mitoxantrone accumulation in ABCG2-transfected HEK293 cells (flow cytometry); details: HEK293/ABCG2, 10 μM
# ABCB1 = ABCB1 (Homo sapiens, UniProt P08183); assay: ABCB1-mediated adriamycin accumulation and ABCB1 level in BC19 cells; details: data not shown
# Chain of UniProt P08183 (P08183 whole entry): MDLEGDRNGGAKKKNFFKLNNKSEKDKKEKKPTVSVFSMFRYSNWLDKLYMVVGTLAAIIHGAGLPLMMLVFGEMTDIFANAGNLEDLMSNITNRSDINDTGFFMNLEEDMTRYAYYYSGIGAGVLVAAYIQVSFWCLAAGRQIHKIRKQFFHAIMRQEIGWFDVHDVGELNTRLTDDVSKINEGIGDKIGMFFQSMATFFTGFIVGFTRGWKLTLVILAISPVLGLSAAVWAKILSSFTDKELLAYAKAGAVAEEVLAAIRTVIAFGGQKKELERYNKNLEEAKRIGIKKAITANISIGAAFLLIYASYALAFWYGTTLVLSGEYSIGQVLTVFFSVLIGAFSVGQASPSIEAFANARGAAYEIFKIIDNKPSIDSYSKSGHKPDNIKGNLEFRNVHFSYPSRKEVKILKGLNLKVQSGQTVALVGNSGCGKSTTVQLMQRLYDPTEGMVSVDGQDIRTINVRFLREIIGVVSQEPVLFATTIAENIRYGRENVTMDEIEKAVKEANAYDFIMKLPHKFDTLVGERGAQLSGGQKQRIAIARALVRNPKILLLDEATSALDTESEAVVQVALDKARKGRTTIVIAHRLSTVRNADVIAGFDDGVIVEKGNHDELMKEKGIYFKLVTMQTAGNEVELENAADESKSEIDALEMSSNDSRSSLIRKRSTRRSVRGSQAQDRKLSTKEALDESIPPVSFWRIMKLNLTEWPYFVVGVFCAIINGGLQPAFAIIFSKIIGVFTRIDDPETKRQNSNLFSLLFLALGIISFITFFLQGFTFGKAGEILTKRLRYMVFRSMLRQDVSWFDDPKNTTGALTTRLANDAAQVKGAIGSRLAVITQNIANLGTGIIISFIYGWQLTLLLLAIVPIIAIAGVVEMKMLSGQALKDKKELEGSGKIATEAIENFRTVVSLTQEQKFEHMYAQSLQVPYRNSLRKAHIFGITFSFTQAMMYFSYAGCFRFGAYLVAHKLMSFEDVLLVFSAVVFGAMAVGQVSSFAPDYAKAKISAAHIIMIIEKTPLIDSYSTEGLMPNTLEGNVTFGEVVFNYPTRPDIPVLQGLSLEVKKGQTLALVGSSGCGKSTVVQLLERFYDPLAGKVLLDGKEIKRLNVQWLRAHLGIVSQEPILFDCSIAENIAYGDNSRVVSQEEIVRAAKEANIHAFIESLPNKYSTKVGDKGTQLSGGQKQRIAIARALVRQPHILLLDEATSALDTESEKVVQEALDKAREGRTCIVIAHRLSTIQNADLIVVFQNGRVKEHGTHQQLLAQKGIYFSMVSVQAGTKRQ
# [6] = system: MCF7 and vector-transfected HEK293 cells; assay: Mitoxantrone accumulation in control cells that do not express ABCG2; details: control MCF7 and vector-transfected HEK293, 3.8 μM
# ABCC1 = ABCC1 (Homo sapiens, UniProt P33527); assay: ABCC1-mediated adriamycin accumulation and ABCC1 level in HEK293/ABCC1 cells; details: data not shown
# Chain of UniProt P33527 (P33527 whole entry): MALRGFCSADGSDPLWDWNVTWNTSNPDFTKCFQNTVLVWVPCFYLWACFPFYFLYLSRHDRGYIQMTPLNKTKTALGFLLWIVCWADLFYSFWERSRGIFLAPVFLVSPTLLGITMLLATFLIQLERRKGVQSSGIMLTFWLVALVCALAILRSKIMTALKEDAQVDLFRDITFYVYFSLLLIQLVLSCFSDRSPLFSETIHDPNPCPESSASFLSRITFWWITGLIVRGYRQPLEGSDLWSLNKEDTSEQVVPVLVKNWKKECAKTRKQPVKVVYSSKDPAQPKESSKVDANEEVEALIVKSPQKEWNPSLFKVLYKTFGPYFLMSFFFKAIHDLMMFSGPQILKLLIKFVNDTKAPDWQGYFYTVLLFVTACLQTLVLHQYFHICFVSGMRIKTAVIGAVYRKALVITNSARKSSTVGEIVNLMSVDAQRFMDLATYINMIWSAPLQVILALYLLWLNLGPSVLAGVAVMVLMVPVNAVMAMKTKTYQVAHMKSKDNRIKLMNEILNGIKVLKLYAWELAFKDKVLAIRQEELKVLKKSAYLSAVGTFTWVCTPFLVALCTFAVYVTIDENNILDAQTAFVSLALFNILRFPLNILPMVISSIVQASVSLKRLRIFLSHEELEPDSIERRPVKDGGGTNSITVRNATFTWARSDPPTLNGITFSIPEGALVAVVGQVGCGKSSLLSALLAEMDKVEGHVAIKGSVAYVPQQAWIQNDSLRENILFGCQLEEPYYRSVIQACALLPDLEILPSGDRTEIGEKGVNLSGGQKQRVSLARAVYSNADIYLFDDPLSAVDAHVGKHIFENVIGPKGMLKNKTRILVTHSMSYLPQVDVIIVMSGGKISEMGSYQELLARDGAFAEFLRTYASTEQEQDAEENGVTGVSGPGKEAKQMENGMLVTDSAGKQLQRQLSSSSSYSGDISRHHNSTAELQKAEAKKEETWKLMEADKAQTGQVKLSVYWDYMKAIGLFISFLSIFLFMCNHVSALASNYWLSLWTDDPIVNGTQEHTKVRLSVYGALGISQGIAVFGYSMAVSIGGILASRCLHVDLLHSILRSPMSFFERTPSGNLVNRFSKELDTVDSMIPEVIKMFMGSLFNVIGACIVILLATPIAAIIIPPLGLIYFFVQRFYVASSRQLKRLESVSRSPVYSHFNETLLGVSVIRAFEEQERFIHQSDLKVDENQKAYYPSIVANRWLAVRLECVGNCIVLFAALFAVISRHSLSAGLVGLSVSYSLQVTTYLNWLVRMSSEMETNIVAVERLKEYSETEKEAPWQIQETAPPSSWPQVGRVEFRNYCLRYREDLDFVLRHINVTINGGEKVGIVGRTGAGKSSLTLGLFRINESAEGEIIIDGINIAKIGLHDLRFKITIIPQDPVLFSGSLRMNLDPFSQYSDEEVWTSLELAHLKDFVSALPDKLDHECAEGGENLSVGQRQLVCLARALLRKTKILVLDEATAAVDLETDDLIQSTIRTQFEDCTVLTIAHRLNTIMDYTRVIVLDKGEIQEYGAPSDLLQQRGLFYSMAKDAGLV
# ABCG2 mRNA = assay: Real-time RT-PCR of ABCG2 mRNA; assay type: cell-based, human; details: MCF7/AdVp3000 and HEK293/ABCG2, up to 3 days
# Description: Real time RT-PCR and Cytotoxicity assay. RNA extraction and real-time RT-PCR were performed as we described previously (Cancer Res 66, 3248-55 (2006)). The sequences of ABCG2 primers are 5′-[…]-3′ (forward) SEQ. ID. No. 1 and 5′-[…]-3′ (reverse) SEQ. ID. No 2. The sequences of GAPDH primers are 5′-[…]-3′ (forward) SEQ. ID. No 3, and 5′-[…]-3′ (reverse) SEQ. ID. No 4. The relative ABCG2 RNA level (2^ΔCT) treated with inhibitors was expressed as percentage of the control (in the presence of 0.1% DMSO) where ΔCT (threshold cycle)=(CTABCG2−CTGAPDH).
# in vitro = details: human, HEK293/ABCG2 cells
smiles,measurement,setting,value
"COc1ccc2c3c([nH]c2c1)[C@H](C=C(C)C)N1C(=O)[C@@H]2CCCN2C(=O)[C@@H]1C3 [FTC, Fumitremorgin C]",SI (sensitization index),ABCG2 [1]; 50 nM inhibitor,0.85
same,SI (sensitization index),ABCG2 [1]; 200 nM inhibitor,0.46
same,Potency Index,ABCG2 [1]; ratio of inhibitor IC50 in absence and presence of mitoxantrone,~76
same,"resistance to adriamycin, camptothecin and mitoxantrone (sensitization)",ABCG2 [2],much lower sensitization effect
same,level of ABCG2,"ABCG2 [3]; HEK293/ABCG2, 10 μM, 24-72 hours",did not affect the level of ABCG2
same,5D3 staining / conformational change of ABCG2,ABCG2 [4],increased 5D3 staining
same,IC50,"HEK293/ABCG2 cells; read-out: IC50 Inhibitor alone, HEK293/ABCG2 cells, no mitoxantrone",~25 µM and 25 µM
same,intracellular mitoxantrone accumulation,ABCG2 [5],achieved similar level of effect
COc1ccc(OC)c(NC(=O)CSC2=N/C(=C/c3ccc(N(C)C)cc3)C(=O)N2c2ccccc2)c1 [PZ-38],IC50,ABCG2 [1],~0.045 µM
same,cytotoxicity,"HEK293/ABCG2 cells; HEK293/ABCG2, concentrations up to 10 μg/ml",not cytotoxic
same,ABCB1-mediated drug efflux,ABCB1,no effect
same,drug accumulation in control cells,[6],no measurable effect
same,ABCC1-mediated drug efflux,ABCC1,no effect
"O=C(CSc1nc2ccc(Nc3nc(N4CCOCC4)nc(N4CCOCC4)n3)cc2s1)Nc1ccc(Cl)cc1 [PZ-39, N-(4-chlorophenyl)-2-[(6-{[4,6-di(4-morpholinyl)-1,3,5-triazin-2-yl]amino}-1,3-benzothiazol-2-yl)sulfanyl]acetamide]",ABCG2 mRNA levels,ABCG2 mRNA,No significant changes
same,IC50,in vitro,> 25 µM
CO/C1=C\C(C)=C\[C@@H](C)[C@@H](O)[C@@H](C)C/C(C)=C/C=C/[C@H](OC)[C@@H]([C@@H](C)[C@@H](O)[C@H](C)[C@@]2(O)C[C@@H](O)[C@H](C)[C@@H](C(C)C)O2)OC1=O [bafilomycin A1],effect on PZ-39-induced ABCG2 degradation,ABCG2 [3],inhibited PZ-39-induced ABCG2 degradation

# Where a chain is given by its changes, count along the chain named. “And” between values parts separate entries of the source, which are not always exact repeats. Identical values can stand only once.
